Hit rate of the full screen: of about 140,000 compounds, about 240 (0.17%) were called active. The inconclusive results got no clear call from the source; some entries with a clear call stand among them for comparison. The call rests on the fitted dose curve; in most records, active means well fitted inhibition curve with a large enough effect; inconclusive means small, poorly fitted or top-dose-only effect; inactive means no such curve, though single readings can be large or run the other way. A potency beside an inconclusive call is a rough fit, not a confirmed value.
assay: Primary qHTS assay for inhibitors of alpha-synuclein gene (SNCA) expression; conditions: HEK-293 SNCA-luciferase knock-in, luminescence, 24 h; activity change, negative = inhibition: at 57.2 µM (top of the series) unless noted; further: nearly all actives have a fitted effect of over 45% in size;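 on activity change, negative = inhibition: plate controls were DMSO cells for no effect and cell-free wells for full effect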
Potency means the concentration at half of the fitted maximal effect; tags describe the fitted curve by direction and shape.

| SMILES | Potency | activity change, negative = inhibition |
| --- | --- | --- |
| COc1cc(Cl)c(C)cc1NC(=O)Cn1cccc1-c1nc(-c2ccc(F)cc2)no1 | inconclusive: 3.16 µM [inhibitor, partial curve, poor fit] |  |
| COc1ccccc1-c1ccc2ncc(Nc3ccccc3)n2n1 |  | inactive: -16.3% [at 87.6 µM] |
| Cc1cn2nc(C(=O)Nc3ccc(OC(F)(F)F)cc3)cc2c(N2CCSCC2)n1 |  | inactive: 8.8% |
| C[S+](=O)([O-])CCn1ncc2cc(OCC3CCN(Cc4ccccc4)CC3)ccc21 | inconclusive: 5.62 µM [inhibitor, partial curve, poor fit] |  |
| Cc1cc(-c2cc3c(ccn3C(C)C)c(C(=O)NCc3c(C)cc(C)[nH]c3=O)n2)ccn1 |  | inactive: -4.64% [at 87.6 µM] |
| Nc1cccc(C(=O)NCC2CCN(Cc3cc(F)cc(F)c3)C2)c1 (stereo not drawn) |  | inactive: 9.31% |
| O=C(NCCc1ccccc1)c1nc2sccn2c1-c1ccc(C(F)(F)F)cc1 | inconclusive: 39.8 µM [inhibitor, partial curve, poor fit] |  |
| Cc1nc2cc(C(=O)N3CCC(Cc4nncn4C(C)C)CC3)ccc2n1-c1ccc(C(C)C)cc1 | inconclusive: 39.8 µM [inhibitor, single point] |  |
| COC(=O)N1CCn2ncc(C(=O)N3CCOCC3)c2C1 |  | inactive: -0.184% |
| COCc1nc(-c2ccc(OC3CN(C(=O)c4ccc(OC)nc4)C3)cc2)no1 | inconclusive: 0.631 µM [inhibitor, full curve, poor fit] |  |
| COCCNC(=O)C1CCN(c2nc3ccccc3nc2C(F)(F)F)CC1 | inconclusive: 17.8 µM [inhibitor, single point] |  |
| O=C1[C@H]2CN(Cc3cc(F)cc(F)c3)C[C@H]2C(=O)N1CCc1ccccc1 |  | inactive: -27.3% |
| COc1ccc(-c2cc(C)no2)cc1S(=O)(=O)N1CCN(c2ccccc2F)CC1 | inconclusive: 22.4 µM [inhibitor, single point] |  |
| Cc1ccc(NC(=O)N2CCC3(CC2)CC(Cc2nc(-c4ccccc4)no2)CCO3)cc1C (stereo not drawn) |  | inactive: 7.41% |
| Cc1cnc(C)c(N2CCN(Cc3nc(-c4sccc4C)oc3C)CC2)n1 | inconclusive: 1.26 µM [inhibitor, full curve, poor fit] |  |
| Cc1cnc(C(=O)N2CCCC(c3nnc4n3CCN(C3CCCC3)C4)C2)cn1 (stereo not drawn) | inconclusive: 39.8 µM [inhibitor, partial curve, poor fit] |  |
| O=C1c2[nH]nc(-c3ccccc3)c2C(c2ccccc2)N1c1cccc(C(F)(F)F)c1 (stereo not drawn) | inconclusive: 12.6 µM [inhibitor, partial curve, poor fit] |  |
| CC1CCN(S(=O)(=O)c2ccc3c(c2)N(CC(=O)NCCc2ccc(Cl)cc2)C(=O)CO3)CC1 | inconclusive: 39.8 µM [inhibitor, single point] |  |

Reference: PubChem BioAssay AID1671194 (National Center for Advancing Translational Sciences (NCATS), 2021)
